# Source: article PMC12040169 (PLOS Biology, 2025)
# The list shows a part of the results.
# System: T1, C. trachomatis L2/434/Bu expressing GFP (CTL2-GFP)
# T1 construct: L2/434/Bu GFP intracellular growth in HeLa cells
# Set-up: species or system HeLa; C. trachomatis total inclusion area by high-content imaging, normalised to DMSO
# Settings: total inclusion area; 28.5 h, 10 µM; inhibitor
# Outline: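 After bulk GFP and resorufin fluorescence reads, cells were fixed, stained with Hoechst and imaged by high-content microscopy. Inclusion area and number (GFP) stood in for chlamydial growth, nuclei count (Hoechst) for host cell viability. MICs were derived as for the bulk readout.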
row,Compound,% of control remaining
1,COC(=O)C(C)(C)C1c2cc(Br)ccc2OC(=O)C1C(=O)c1ccccc1 (stereo not shown) [CBK266690],110.061
2,CC(=O)c1ccc(NC(=O)C(C)SCc2ccc(C)cc2)cc1 (stereo not shown) [CBK296616],53.9364
3,O=C(Cc1ccc(F)cc1)N1CCC(c2cc3cnccc3[nH]2)CC1 [CBK283454],88.4193
4,C#CCN(C)CC[C@@H]1CC[C@H](O)[C@@H](C(=O)NC(C)C)O1 [CBK288718],90.848
5,CCn1cc(CN2CCN(C(=O)C3C4CCCCC43)CC2)c(C)n1 (stereo not shown) [CBK281545],88.9931
6,COc1ccccc1Cc1cccc(C2CCCN2C(=O)c2ccc(F)cc2)n1 (stereo not shown) [CBK286239],101.307
7,O=C(NCc1ccc(Cl)cc1)N1CCCC(CO)C1 (stereo not shown) [CBK156053],101.927
8,COCCCN(Cc1ccccn1)Cc1cc(F)ccc1F [CBK282950],75.6099
9,CCS(=O)(=O)N1CCC(C(=O)NC2CC(C)(C)Oc3ccccc32)CC1 (stereo not shown) [CBK304364],112.515
10,CCOc1ccc(N2C(=O)CC(N3CCN(CCc4ccncc4)CC3)C2=O)cc1 (stereo not shown) [CBK269930],128.496
11,Cc1cc(C)c(S(=O)(=O)N(CC(=O)O)C2CCCCC2)c(C)c1 [CBK266663],109.806
12,CCCc1cc(O)nc(SC(C)C(=O)N2CCOCC2)n1 (stereo not shown) [CBK305030],75.1952
13,N#C/C(=C\c1ccccc1O)C(=O)Nc1sc2c(c1C(N)=O)CCCC2 [CBK263644],80.5631
14,CCC(O)Cn1nc(CCSC)nc1-c1ccc2[nH]ccc2c1 (stereo not shown) [CBK307526],75.1121
15,O=C(Nc1ccc(F)cc1F)Nc1cc(Cl)sc1Cl [CBK019967],72.2486
16,N=C(SC1CC(=O)N(c2ccc(C(=O)O)cc2)C1=O)N1N=C(c2ccccc2)CC1c1ccccc1 (stereo not shown) [CBK262446],105.174
17,CC(C)(C)c1cc(NC(=O)c2csc3c(C(F)(F)F)cc(N4CCN(Cc5ccccc5)CC4)nc23)no1 [CBK028962],57.9316
18,CC1(C)CC(=O)C=C(C(=O)NCc2ccc3c(c2)OCO3)O1 [CBK153290],115.368
19,O=C(O)C1CC=C(Cl)CC1C(=O)Nc1ccc(Cl)cc1[N+](=O)[O-] (stereo not shown) [CBK265612],101.857
20,CCc1cc(C(=O)OC)c(NC(=O)CC2Nc3cccc4cccc(c34)NC2=O)s1 (stereo not shown) [CBK267563],88.3699
21,COc1ccccc1-c1noc(CN2CCCC(C(F)(F)F)C2)n1 (stereo not shown) [CBK305598],75.9605
22,CCOc1ccc(NC(=O)C(=O)NC2CCCCC2)cc1 [CBK261822],101.935
23,Cc1nc(CN2CCCN(S(=O)(=O)c3ccc(C(=O)c4ccccc4)cc3)CC2)c[nH]1 [CBK063029],82.5419
24,CC(C)(C)COC(=O)N1CCC2(CC1)CC(=O)N(Cc1ccc(S(C)(=O)=O)cc1)C2=O [CBK155949],52.1561
25,Cc1ccc(-c2noc([C@@H]3C[C@H](NC(=O)CCC(=O)O)CN3C)n2)cc1 [CBK288852],92.5421
26,C[C@@H](c1ccccc1)n1c(=O)[nH]c2ncc(-c3cncc4ccccc34)nc21 [CBK064726],76.6708
27,O=S(=O)(c1ccccc1)C1CCCCO1 (stereo not shown) [CBK020284],97.4909

row,Compound,% of control remaining
1,CCOCCC(=O)N/N=C(/C)c1ccc(Cl)s1 [CBK007454],105.067
2,COc1ccccc1-c1ccc(NS(=O)(=O)c2ccc3c(c2)CCC(=O)N3)cc1 [CBK286353],110.055
3,Cc1ccc(CN(CCCn2ccnc2)Cc2nccn2C)s1 [CBK283137],101.398
4,CN1CCN(c2nc(-c3ccc4c(c3)CCCC(=O)N4)cs2)CC1 [CBK305600],39.0875
5,Cn1nc2c(cc1=O)CN(C(=O)c1ccc3cc[nH]c3c1)CC2 [CBK304343],60.5884
6,CS(=O)(=O)N(CC(=O)Nc1ccccc1C(=O)N1CCCC1)c1cc(Cl)c(Cl)cc1Cl [CBK268826],87.79
7,COc1ccc(C)cc1S(=O)(=O)Nc1cc(N2CCNC(C(F)(F)F)C2)c2occc2c1 (stereo not shown) [CBK073818C],104.439
8,O=C(Cn1cc(C(=O)NCC2(c3ccccc3Cl)CC2)ccc1=O)NC1CCCCC1 [CBK285985],108.183
9,O=C(N/C(=C/c1ccccc1)C(=O)N1CCCCC1)c1ccccc1 [CBK261280],84.3601
10,CC1Cc2cc(C(O)CN3CCC4CCCCC4C3)ccc2N1S(C)(=O)=O (stereo not shown) [CBK286456],80.9019
11,C[C@]12CN(Cc3ccccc3)C[C@H]1CNc1ccccc1C(=O)N2 [CBK282932],122.682
12,CCOC(=O)C1CCCN(CCC(=O)Nc2cccc(C)c2)C1 (stereo not shown) [CBK264158C],96.1257
13,CN1C(=O)COc2ccccc2CCCC[C@@H]2[C@H]1CCCN2C(=O)CNS(C)(=O)=O [CBK292118],67.9394
14,O=C1CC2(CCC3C(C(=O)N4CCCC4)C32)Oc2ccccc21 (stereo not shown) [CBK284969],77.9466
15,COc1cncc(-c2cncc(Nc3cc(OC)c(OC)c(OC)c3)n2)c1 [CBK065397],73.2621
16,COCc1ccc(C(=O)N2CCC(Cc3ccccc3-c3cccs3)(C(N)=O)CC2)cc1 [CBK286276],118.433
17,Clc1ccc(OCCOc2ccccc2)nn1 [CBK176034],46.274
18,O=C1CCOC[C@]2(CN(Cc3ccccc3)C[C@H]2c2ccccc2)N1 [CBK283367],111.487
19,COc1cccc(Cn2c(=O)[nH]n(-c3ccccc3)c2=O)c1 [CBK122771],78.4573
20,NC(=O)CN1CCC[C@@H]2NC(=O)COc3ccccc3C(=O)N[C@@H]3CCOC[C@@H]3C/C=C/C[C@@H]21 [CBK292041],91.3894
21,CC(C)(C)NS(=O)(=O)c1ccc(OCC(=O)NCc2ccncc2)cc1 [CBK266434],104.158
22,c1ccc(-c2csc(Nc3cccnc3)n2)nc1 [CBK267184],84.3562
23,O=C(NC(C(=O)O)c1ccccc1)NC12CC3CC(CC(C3)C1)C2 (stereo not shown) [CBK268313],93.9365
24,O=S(=O)(c1ccc2ccccc2c1)N1CCN(CCCOc2ccccc2Cl)CC1 [CBK267018],105.047
25,COc1cc(-c2nnc(CSc3nc4sc(C(=O)O)c(C)c4c(=O)[nH]3)o2)cc(OC)c1OC [CBK296973],97.9555
26,CCCc1nnc2sc(C3CCC(=O)N(C(C)C)C3)nn12 (stereo not shown) [CBK306942],45.9388
27,COc1ccc(Sc2nc(SC)nc(-c3ccccc3)c2C#N)cc1 [CBK291212],99.0767

row,Compound,% of control remaining
1,O=C1c2ccccc2CN1c1cccc(Cl)c1Cl [CBK109916],97.4552
2,COCOc1ccc(-c2ncc(OCCN3CCOCC3)nc2N)cc1 [CBK145100],104.604
3,O=C(Nc1cncc(OC2CCNCC2)n1)c1cccnc1 [CBK036375T],82.8545
4,Cc1nc(C2CCCCN2C(=O)C2CCCCC2)ncc1C(=O)NCc1ccc(F)cc1 (stereo not shown) [CBK285554],105.496
5,c1cn2cnnc2c(N2CCOC(c3ccsc3)C2)n1 (stereo not shown) [CBK306379],84.4121
6,Cc1ccc2nc(CSc3ncnc4sc(C)cc34)[nH]c2c1 [CBK270047],99.8948
7,COc1ccccc1N1C(=O)c2ccc(C(=O)Nc3cc([N+](=O)[O-])ccc3O)cc2C1=O [CBK264272],113.997
8,O=C(c1ccccc1)n1c(=S)nc2n(c1=S)CCN2 [CBK021794],46.6756
9,CC(C)C(=O)Nc1ccc2nc(-c3ccoc3)c(-c3ccoc3)nc2c1 [CBK286304],86.4348
10,CSc1cccc(CN2C[C@H]3CN(C(=O)C4CCC4)C[C@@]3(C(=O)O)C2)c1 [CBK307645],65.7664
11,CN1C2C=C(N(CCc3ccccc3)C(=O)c3ccc(Cl)cc3)CC1CC2 (stereo not shown) [CBK262604C],104.891
12,Oc1ccc(/C=N/c2nnn[nH]2)cc1 [CBK260976],69.1066
13,Cc1noc(C)c1C(=O)N1CCN(CCc2ccccc2)CC1 [CBK200225],104.924
14,O=C(O)CSc1nnc(-c2ccc(F)cc2)o1 [CBK068115],89.8934
15,CC1CCCCN1Cc1ccc(-c2nnn(CC(=O)NCc3ccco3)n2)cc1 (stereo not shown) [CBK122002],106.762
16,CCn1c(/C=C/C2=CCN(C)CC2)nc2ccccc21 [CBK283745],95.8043
17,COC(=O)c1sc(NC(=O)C2CCCCC2C(=O)O)c(C(=O)OC)c1C (stereo not shown) [CBK265389],97.0871
18,NCCCOc1cncc(N2CCCC2)n1 [CBK115603],102.514
19,Cc1ccc(OCC(=O)NC(=S)Nc2cccc(-c3nc4ncccc4o3)c2C)cc1 [CBK263925],87.4274
20,Cc1ccc(C)c(CSC2CCN(C3CCOCC3)C2=O)c1 (stereo not shown) [CBK304865],49.0271
21,O=C(O)c1ccc(CN2CCOC[C@H]2c2nc(-c3ccc(C(F)(F)F)cc3)c[nH]2)cc1 [CBK289317],97.7716
22,COc1ccc2c(ccn2S(=O)(=O)c2ccc(N3CCNCC3)c(C(F)(F)F)c2)c1 [CBK034033C],39.846
23,CN1CCC(N2CCN(C(=O)Nc3cccnc3)CC2)CC1 [CBK156111],61.9753
24,Cc1nc(C)c(-c2csc(Nc3ccc(C(=O)O)c(O)c3)n2)s1 [CBK267263],112.049
25,CCC(Oc1ccccc1)C(=O)Nc1cc(OC)c(Cl)cc1OC (stereo not shown) [CBK262235],91.3634
